Columns and labels:
Magnaporthe grisea = type: in vivo; conditions: for Test A control value: Blast on rice; for Test A (control value class): rice blast, Magnaporthe grisea, 250 ppm spray
Phytophthora infestans = type: in vivo; conditions: 5-10 days after inoculation; for Test F control value: Late blight on tomato, 250 ppm sprayed before inoculation; for Test F (control value class): late blight on tomato, Phytophthora infestans, 250 ppm spray

| SMILES | Test A control value (Magnaporthe grisea) | Test F control value (Phytophthora infestans) | Test A (control value class) (Magnaporthe grisea) | Test F (control value class) (Phytophthora infestans) |
| --- | --- | --- | --- | --- |
| CCn1c(-c2c(F)cccc2F)c(-c2ccccc2C)ccc1=O [Compound 160] | H (H shows more than 50% of control values) | H (H shows more than 50% of control values) | – | – |
| CCn1c(-c2c(F)cccc2F)c(-c2ccccc2C)cc(Cl)c1=O [Compound 161] | H (H shows more than 50% of control values) | L (L shows 50% or less of control values) | – | – |
| CCn1c(-c2c(F)cccc2F)c(-c2ccccc2C)cc(Br)c1=O [Compound 162] | H (H shows more than 50% of control values) | L (L shows 50% or less of control values) | – | – |
| COc1cc(OC)cc(C2=C(c3c(F)cccc3Cl)N(C)C(=O)CC2)c1 [Compound 163] | H (H shows more than 50% of control values) | L (L shows 50% or less of control values) | – | – |
| COc1cc(OC)cc(-c2ccc(=O)n(C)c2-c2c(F)cccc2Cl)c1 [Compound 164] | H (H shows more than 50% of control values) | L (L shows 50% or less of control values) | – | – |
| COc1cc(OC)c(Br)c(-c2ccc(=O)n(C)c2-c2c(F)cccc2Cl)c1 [Compound 165] | H (H shows more than 50% of control values) | H (H shows more than 50% of control values) | – | – |
| COc1cc(OC)c(Cl)c(-c2ccc(=O)n(C)c2-c2c(F)cccc2Cl)c1 [Compound 166] | H (H shows more than 50% of control values) | H (H shows more than 50% of control values) | – | – |
| CCn1c(-c2c(F)cccc2Cl)c(-c2c(Cl)c(OC)cc(OC)c2Cl)cc(Cl)c1=O [Compound 167] | H (H shows more than 50% of control values) | L (L shows 50% or less of control values) | – | – |
| Cn1c(-c2c(F)cccc2F)c(-c2cccc(F)c2)ccc1=O [Compound 168] | H (H shows more than 50% of control values) | H (H shows more than 50% of control values) | – | – |
| Cn1c(-c2c(F)cccc2F)c(-c2cccc(F)c2)cc(Cl)c1=O [Compound 169] | H (H shows more than 50% of control values) | L (L shows 50% or less of control values) | – | – |
| Cn1c(-c2c(F)cccc2F)c(-c2cccc(F)c2)cc(Br)c1=O [Compound 170] | H (H shows more than 50% of control values) | L (L shows 50% or less of control values) | – | – |
| CCn1c(-c2c(F)cccc2F)c(-c2cccc(Cl)c2)ccc1=O [Compound 171] | H (H shows more than 50% of control values) | L (L shows 50% or less of control values) | – | – |
| CN1C(=O)CCC(c2cccc(F)c2)=C1c1c(F)cccc1F [Compound 172] | H (H shows more than 50% of control values) | H (H shows more than 50% of control values) | – | – |
| CCN1C(=O)CCC(c2cccc(Cl)c2)=C1c1c(F)cccc1F [Compound 173] | H (H shows more than 50% of control values) | H (H shows more than 50% of control values) | – | – |
| CCN1C(=O)CCC(c2cc(OC)cc(OC)c2)=C1c1c(F)cccc1Br [Compound 174] | H (H shows more than 50% of control values) | L (L shows 50% or less of control values) | – | – |
| CCn1c(-c2c(F)cccc2Br)c(-c2cc(OC)cc(OC)c2)ccc1=O [Compound 175] | H (H shows more than 50% of control values) | L (L shows 50% or less of control values) | – | – |
| CCn1c(-c2c(F)cccc2Br)c(-c2cc(OC)cc(OC)c2Br)ccc1=O [Compound 176] | H (H shows more than 50% of control values) | H (H shows more than 50% of control values) | – | – |
| CCn1c(-c2c(F)cccc2Br)c(-c2cc(OC)cc(OC)c2Cl)ccc1=O [Compound 177] | H (H shows more than 50% of control values) | L (L shows 50% or less of control values) | – | – |
| CCn1c(-c2c(F)cccc2F)c(-c2cccc(Cl)c2)cc(Cl)c1=O [Compound 178] | H (H shows more than 50% of control values) | L (L shows 50% or less of control values) | – | – |
| CCn1c(-c2c(F)cccc2F)c(-c2cccc(Cl)c2)cc(Br)c1=O [Compound 179] | H (H shows more than 50% of control values) | L (L shows 50% or less of control values) | – | – |
| Cc1ccccc1-c1ccc(=O)n(C)c1-c1c(F)cccc1F [Compound 180] | H (H shows more than 50% of control values) | H (H shows more than 50% of control values) | – | – |
| Cc1ccccc1-c1cc(Cl)c(=O)n(C)c1-c1c(F)cccc1F [Compound 181] | H (H shows more than 50% of control values) | L (L shows 50% or less of control values) | – | – |

| SMILES | Test A control value (Magnaporthe grisea) | Test F control value (Phytophthora infestans) | Test A (control value class) (Magnaporthe grisea) | Test F (control value class) (Phytophthora infestans) |
| --- | --- | --- | --- | --- |
| Cc1ccccc1-c1cc(Br)c(=O)n(C)c1-c1c(F)cccc1F [Compound 182] | H (H shows more than 50% of control values) | L (L shows 50% or less of control values) | – | – |
| COc1cc(OC)cc(-c2ccc(=O)n(C)c2-c2c(F)cccc2Br)c1 [Compound 183] | H (H shows more than 50% of control values) | L (L shows 50% or less of control values) | – | – |
| COc1cc(OC)c(Br)c(-c2ccc(=O)n(C)c2-c2c(F)cccc2Br)c1 [Compound 184] | H (H shows more than 50% of control values) | H (H shows more than 50% of control values) | – | – |
| Cn1c(-c2c(F)cccc2F)c(-c2c(F)c(F)c(F)c(F)c2F)ccc1=O [Compound 373] | – | – | H (H shows more than 50% of control values) | L (L shows 50% or less of control values) |
| Cn1c(-c2c(F)cccc2F)c(-c2c(F)c(F)c(F)c(F)c2F)cc(Cl)c1=O [Compound 374] | – | – | H (H shows more than 50% of control values) | L (L shows 50% or less of control values) |
| CCn1c(-c2c(F)cccc2F)c(-c2cc(OC)ccc2Cl)cc(SC)c1=O [Compound 375] | – | – | H (H shows more than 50% of control values) | L (L shows 50% or less of control values) |
| CCOc1ccc(Cl)c(-c2cc(Cl)c(=O)n(CC)c2-c2c(F)cccc2F)c1 [Compound 376] | – | – | H (H shows more than 50% of control values) | L (L shows 50% or less of control values) |
| COc1cc(OC)c(Cl)c(-c2ccc(=O)n(CC(F)(F)F)c2-c2c(F)cc(F)cc2F)c1 [Compound 377] | – | – | H (H shows more than 50% of control values) | L (L shows 50% or less of control values) |
| CCOc1cc(F)c(-c2c(-c3cc(OC)cc(OC)c3Cl)ccc(=O)n2CC)c(F)c1 [Compound 378] | – | – | H (H shows more than 50% of control values) | L (L shows 50% or less of control values) |
| COc1cc(OC)c(Cl)c(-c2ccc(=O)n(/C=C/F)c2-c2c(F)cc(F)cc2F)c1 [Compound 379] | – | – | H (H shows more than 50% of control values) | H (H shows more than 50% of control values) |
| COc1cc(OC)c(Cl)c(-c2ccc(=O)n(/C=C\F)c2-c2c(F)cc(F)cc2F)c1 [Compound 380] | – | – | H (H shows more than 50% of control values) | L (L shows 50% or less of control values) |
| CCn1c(-c2c(F)cc(F)cc2F)c(-c2cc(F)ccc2Cl)cc(Br)c1=O [Compound 381, 3-bromo-5-(2-chloro-5-fluorophenyl)-1-ethyl-6-(2,4,6-trifluorophenyl)pyridine-2(1H)-one] | – | – | H (H shows more than 50% of control values) | L (L shows 50% or less of control values) |
| CCn1c(-c2c(F)cc(OC)cc2F)c(-c2cc(F)ccc2Cl)ccc1=O [Compound 382] | – | – | H (H shows more than 50% of control values) | L (L shows 50% or less of control values) |
| O=c1ccc(-c2c(F)c(F)c(F)c(F)c2F)c(-c2c(F)cccc2F)n1CC(F)F [Compound 383] | – | – | H (H shows more than 50% of control values) | L (L shows 50% or less of control values) |
| O=c1c(Cl)cc(-c2c(F)c(F)c(F)c(F)c2F)c(-c2c(F)cccc2F)n1CC(F)F [Compound 384] | – | – | H (H shows more than 50% of control values) | L (L shows 50% or less of control values) |
| CCn1c(-c2c(F)cccc2F)c(-c2c(F)cccc2Cl)ccc1=O [Compound 385] | – | – | H (H shows more than 50% of control values) | H (H shows more than 50% of control values) |
| CCn1c(-c2c(F)cc(OC)cc2F)c(-c2cc(F)ccc2Cl)cc(Cl)c1=O [Compound 386] | – | – | H (H shows more than 50% of control values) | L (L shows 50% or less of control values) |
| CCn1c(-c2c(F)cccc2F)c(-c2cc(OC)ccc2Cl)cc(S(C)(=O)=O)c1=O [Compound 387] | – | – | H (H shows more than 50% of control values) | L (L shows 50% or less of control values) |
| O=C1CCC(c2cc(F)ccc2Cl)=C(c2c(F)cccc2F)N1CC(F)F [Compound 388] | – | – | H (H shows more than 50% of control values) | L (L shows 50% or less of control values) |
| CCCN1C(=O)CCC(c2cc(OC)ccc2Cl)=C1c1c(F)cccc1F [Compound 389] | – | – | H (H shows more than 50% of control values) | L (L shows 50% or less of control values) |
| O=c1ccc(-c2cc(F)ccc2Cl)c(-c2c(F)cccc2F)n1CC(F)F [Compound 391] | – | – | H (H shows more than 50% of control values) | L (L shows 50% or less of control values) |
